In patent US20050221443A1 (published 2005):

T1: BAFFR (UniProt Q96RJ3 7-71, limits assumed)
T1 sequence (looked up): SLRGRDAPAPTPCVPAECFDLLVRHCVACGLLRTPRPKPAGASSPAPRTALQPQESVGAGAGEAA

T2: TACI (UniProt O14836 2-166, limits assumed)
T2 sequence (looked up): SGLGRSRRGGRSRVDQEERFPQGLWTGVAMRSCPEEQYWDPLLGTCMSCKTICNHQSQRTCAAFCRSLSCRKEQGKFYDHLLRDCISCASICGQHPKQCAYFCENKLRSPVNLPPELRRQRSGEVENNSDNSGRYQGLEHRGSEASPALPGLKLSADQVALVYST

T3: BCMA (UniProt Q02223 1-54, limits assumed)
T3 sequence (looked up): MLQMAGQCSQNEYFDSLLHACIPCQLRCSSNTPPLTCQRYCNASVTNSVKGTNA


Key:
Test in all cases: Kd ratio to wild-type BAFF; method not stated
BAFFR = target: T1, BAFFR
TACI = target: T2, TACI
BCMA = target: T3, BCMA

Binder	Kd (var/wt) (BAFFR) [ratio variant/wild-type]	Kd (var/wt) (TACI) [ratio variant/wild-type]	Kd (var/wt) (BCMA) [ratio variant/wild-type]
BAFF variant Y163D (ligand, extracellular domain) not shown	0.69	0.76	0.19
BAFF variant L240R (ligand, extracellular domain) not shown	0.19	0.43	2.9
BAFF variant L240F (ligand, extracellular domain) not shown	0.13	0.33	0.07
BAFF variant N267R (ligand, extracellular domain) not shown	0.67	1	1.3
BAFF variant L240Q (ligand, extracellular domain) not shown	0.56	0.79	1.3
BAFF variant I233V (ligand, extracellular domain) not shown	0.26	0.28	0.25
BAFF variant L240N (ligand, extracellular domain) not shown	0.24	0.59	3.7
BAFF variant N242Y (ligand, extracellular domain) not shown	0.72	0.73	0.36
BAFF variant Q269E (ligand, extracellular domain) not shown	0.42	0.65	1.13
BAFF variant S162D (ligand, extracellular domain) not shown	0.33	0.28	0.13
BAFF variant S162L (ligand, extracellular domain) not shown	0.62	0.56	0.87
BAFF variant Y163F (ligand, extracellular domain) not shown	0.29	0.26	0.41
BAFF variant A207T (ligand, extracellular domain) not shown	0.72	0.5	0.61
BAFF variant E238K (ligand, extracellular domain) not shown	0.18	0.09	0.38
BAFF variant E266K (ligand, extracellular domain) not shown	0.81	0.3	60
BAFF variant L211V (ligand, extracellular domain) not shown	0.31	0.32	0.12
BAFF variant E266T (ligand, extracellular domain) not shown	0.45	–	7.4
BAFF variant D273A (ligand, extracellular domain) not shown	0.79	0.72	0.22
BAFF variant D273E (ligand, extracellular domain) not shown	0.81	0.67	0.85

More lines, now with the values ahead:

Kd (var/wt) (BAFFR) [ratio variant/wild-type]	Kd (var/wt) (TACI) [ratio variant/wild-type]	Kd (var/wt) (BCMA) [ratio variant/wild-type]	Binder
0.3	0.32	3	BAFF variant L211E (ligand, extracellular domain) not shown
0.53	0.58	1.9	BAFF variant T205I (ligand, extracellular domain) not shown
0.44	0.62	0.73	BAFF variant Q269K (ligand, extracellular domain) not shown
0.25	0.26	0.17	BAFF variant Y163T (ligand, extracellular domain) not shown
0.82	0.79	0.51	BAFF variant Q159K (ligand, extracellular domain) not shown
1	0.64	0.19	BAFF variant Y206F (ligand, extracellular domain) not shown
0.23	0.28	0.18	BAFF variant Y163I (ligand, extracellular domain) not shown
0.49	0.81	9.5	BAFF variant E266I (ligand, extracellular domain) not shown
0.34	0.36	0.47	BAFF variant E238Q (ligand, extracellular domain) not shown
0.39	0.5	0.87	BAFF variant S162N (ligand, extracellular domain) not shown
0.62	0.71	0.43	BAFF variant D273N (ligand, extracellular domain) not shown
1.1	0.48	7.3	BAFF variant E266R (ligand, extracellular domain) not shown
0.19	0.22	0.1	BAFF variant L240Y (ligand, extracellular domain) not shown
0.9	1	0.38	BAFF variant D273H (ligand, extracellular domain) not shown
0.27	0.31	0.25	BAFF variant Y163L (ligand, extracellular domain) not shown
0.4	0.32	0.13	BAFF variant N242A (ligand, extracellular domain) not shown
0.48	1.1	10	BAFF variant E266L (ligand, extracellular domain) not shown
1	0.69	0.23	BAFF variant D273R (ligand, extracellular domain) not shown
1	0.8	1.5	BAFF variant Q269H (ligand, extracellular domain) not shown
0.44	0.42	0.29	BAFF variant Q159R (ligand, extracellular domain) not shown
